Among all 39,000 compounds or so, about 220 (0.56%) showed activity. This is one part of the list.
test system: Escherichia coli K-12 BW25113; assay: relative growth (OD600 normalised to plate interquartile mean) (fraction); higher = less growth inhibition, active = 0.2 or less; settings: 50 µM; LB; incubation time: overnight (16-24 h)
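Further: static incubation at 37 °C against the wild-type strain, values averaged over two biological replicates.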

| SMILES | relative growth |
| --- | --- |
| CC1=C(C(=O)O)N2C(=O)[C@@H](NC(=O)[C@H](N)c3ccc(O)cc3)[C@H]2SC1 | inactive: 1.06 |
| COCCCOc1cc(C[C@@H](C[C@H](N)[C@@H](O)C[C@H](C(=O)NCC(C)(C)C(N)=O)C(C)C)C(C)C)ccc1OC | inactive: 1.03 |
| O=C(N[C@H]1CC[C@@H](CCNS(=O)(=O)c2ccccc2)O[C@@H]1CO)c1cnccn1 | inactive: 0.943 |
| C[C@H](CO)N1C[C@H](C)[C@@H](CN(C)Cc2ccc(C(=O)Nc3ccccc3N)cc2)Oc2ccc(NC(=O)Cc3cn(C)c4ccccc34)cc2CC1=O | inactive: 0.974 |
| C[C@@H]1CCCCO[C@H](CN(C)S(=O)(=O)c2ccccc2)[C@@H](C)CN([C@H](C)CO)C(=O)c2cc(NC(=O)c3ccccc3)ccc2O1 | inactive: 0.979 |
| C[C@H]1CN([C@@H](C)CO)S(=O)(=O)c2ccc(-c3cccnc3)cc2O[C@H]1CN(C)C(=O)NC1CCCCC1 | inactive: 1.01 |
| Cc1noc(C)c1NC(=O)Nc1ccc2c(c1)C(=O)N([C@H](C)CO)C[C@H](C)[C@@H](CN(C)S(=O)(=O)c1ccc(Cl)cc1)OCCCC[C@@H](C)O2 | inactive: 0.997 |
| C[C@@H]1CCCCO[C@H](CN(C)C(=O)C2CCCCC2)[C@@H](C)CN([C@H](C)CO)C(=O)c2cc(NC(=O)c3ccncc3)ccc2O1 | inactive: 0.995 |
| C[C@@H]1CN([C@H](C)CO)C(=O)c2cc(NC(=O)Nc3ccc4c(c3)OCO4)ccc2O[C@H]1CN(C)C(=O)Nc1ccc(C(F)(F)F)cc1 | inactive: 0.992 |
| CS(=O)(=O)N1CCn2cc(Cn3cccn3)nc2C1 | inactive: 0.999 |
| O=C(O)[C@H]1/C(=C/CO)O[C@@H]2CC(=O)N21 | inactive: 0.969 |
| Cc1noc(C)c1S(=O)(=O)Nc1ccc2c(c1)C(=O)N([C@@H](C)CO)C[C@@H](C)[C@H](CN(C)CC1CC1)O2 | inactive: 0.997 |
| C[C@H]1CN([C@@H](C)CO)C(=O)Cc2cc(NC(=O)Nc3ccccc3)ccc2O[C@H]1CN(C)Cc1ccc(Oc2ccccc2)cc1 | inactive: 1.01 |
| O=C1COC[C@@H](c2ccccc2)N1 | inactive: 1.01 |
| C[C@@H]1CN([C@H](C)CO)C(=O)c2c(c3ccccc3n2C)-c2ccccc2CO[C@H]1CN(C)Cc1ccc2c(c1)OCO2 | inactive: 0.967 |
| Cl.Cl.OCCOCCN1CCN(C(c2ccccc2)c2ccc(Cl)cc2)CC1 (stereo not drawn) | inactive: 1 |
| COc1ccc(NC(=O)N(C)C[C@@H]2OCCCC[C@H](C)Oc3ccc(NC(=O)c4ccccc4)cc3C(=O)N([C@H](C)CO)C[C@H]2C)cc1 | inactive: 0.986 |
| COc1cccc(-c2cccc(-c3nc(C(=O)N[C@@H]4CCN(Cc5ccccc5)C4)cc4c3[C@H](CCO)N(S(=O)C(C)(C)C)C4)c2)c1 (stereo partly drawn) | inactive: 0.983 |
| C[C@@H]1CCCCO[C@H](CN(C)S(=O)(=O)c2cn(C)cn2)[C@@H](C)CN([C@@H](C)CO)C(=O)c2cc(NC(=O)Nc3ccc(C(F)(F)F)cc3)ccc2O1 | inactive: 1.01 |

| SMILES | relative growth |
| --- | --- |
| COc1cc(C)nc(SCC(N)=O)n1 | inactive: 0.996 |
| c1ccc(-n2ncc3c2ncn2nnnc32)cc1 | inactive: 0.996 |
| COc1ccc(S(=O)(=O)N(C)C[C@H]2OCc3cn(nn3)CCCC(=O)N([C@H](C)CO)C[C@@H]2C)cc1 | inactive: 1.02 |
| C[C@@H]1CCCCO[C@@H](CN(C)Cc2ccc(C(F)(F)F)cc2)[C@@H](C)CN([C@H](C)CO)C(=O)c2cc(NC(=O)Nc3cccc4ccccc34)ccc2O1 | inactive: 1.02 |
| COc1ccc(NC(=O)Nc2ccc3c(c2)C(=O)N([C@@H](C)CO)C[C@@H](C)[C@@H](CN(C)S(=O)(=O)c2ccc(C)cc2)OCCCC[C@@H](C)O3)cc1 | inactive: 1.03 |
| C[C@@H]1CN([C@@H](C)CO)C(=O)c2cccc(NS(C)(=O)=O)c2O[C@H]1CN(C)S(=O)(=O)c1ccccc1 | inactive: 1.01 |
| O=C(C[C@H]1CC[C@@H]2[C@H](COC[C@@H](O)CN2Cc2cc(F)ccc2F)O1)N[C@H]1CCN(Cc2ccccc2)C1 | inactive: 1.02 |
| C[C@H](CO)N1C[C@H](C)[C@H](CN(C)S(=O)(=O)c2ccc(C#N)cc2)Oc2ncc(-c3cccc(F)c3)cc2C1=O | inactive: 1 |
| CC(C)NC(=O)Nc1ccc2c(c1)CC(=O)N([C@H](C)CO)C[C@H](C)[C@@H](CN(C)C(=O)Nc1ccc3c(c1)OCO3)O2 | inactive: 1.01 |
| C[C@H](CO)N1C[C@H](C)[C@@H](CN(C)C(=O)Nc2ccc(F)cc2)OCCCC[C@H](C)Oc2ccc(NC(=O)CCCN(C)C)cc2C1=O | inactive: 0.986 |
| COc1cccc(NC(=O)N(C)C[C@H]2Oc3ncc(Br)cc3C(=O)N([C@H](C)CO)C[C@H]2C)c1 | inactive: 1 |
| CO[C@@H](CN(C)S(=O)(=O)c1cccc(Cl)c1)[C@H](C)CN([C@@H](C)CO)S(=O)(=O)c1ccc(Cl)cc1 | inactive: 0.917 |
| C[C@H]1CN([C@@H](C)CO)C(=O)c2cccc(NC(=O)C3CCOCC3)c2O[C@@H]1CN(C)S(=O)(=O)c1ccc(Cl)cc1 | inactive: 0.994 |
| O=C(C[C@@H]1CC[C@@H]2[C@H](COC[C@@H](O)CN2S(=O)(=O)c2ccc(Cl)cc2)O1)NCc1ccncn1 | inactive: 1.02 |
| C[C@H]1CN([C@@H](C)CO)S(=O)(=O)c2ccc(C#Cc3ccncc3)cc2O[C@H]1CN(C)C(=O)C1CCOCC1 | inactive: 0.969 |
| COCC(=O)N1CC[C@]2(CC1)CN([C@H](CO)c1[nH]c3cc(ccc3c12)OC)C(=O)Nc1ccccc1F | inactive: 0.988 |
| C[C@@H]1CN([C@H](C)CO)C(=O)c2cccc(NC(=O)C3CC3)c2O[C@@H]1CN(C)S(=O)(=O)c1ccc(Cl)cc1 | inactive: 0.924 |
| C[C@@H]1CN([C@@H](C)CO)C(=O)Cc2cc(NC(=O)Nc3ccc(C(F)(F)F)cc3)ccc2O[C@@H]1CN(C)Cc1ccc(C(=O)O)cc1 | inactive: 0.994 |
| C[C@@H]1CN([C@H](C)CO)C(=O)c2cccc(NS(=O)(=O)c3cn(C)cn3)c2O[C@@H]1CN(C)Cc1ccc2c(c1)OCO2 | inactive: 0.997 |
